Results taken from paper PMC4336329 (PLoS ONE, 2015).
Hit rate of the full screen: of about 310,000 compounds, about 2,200 (0.71%) showed an effect of 50% or more. Effects have a minus sign here. Some of the results follow.

What follows are compounds tested against human ether-à-go-go-related gene (hERG) potassium channel (human, UniProt Q12809) (assay: primary screen, population patch clamp on CHO cells stably expressing hERG).
Chain of human ether-à-go-go-related gene (hERG) potassium channel (Q12809 whole entry, looked up): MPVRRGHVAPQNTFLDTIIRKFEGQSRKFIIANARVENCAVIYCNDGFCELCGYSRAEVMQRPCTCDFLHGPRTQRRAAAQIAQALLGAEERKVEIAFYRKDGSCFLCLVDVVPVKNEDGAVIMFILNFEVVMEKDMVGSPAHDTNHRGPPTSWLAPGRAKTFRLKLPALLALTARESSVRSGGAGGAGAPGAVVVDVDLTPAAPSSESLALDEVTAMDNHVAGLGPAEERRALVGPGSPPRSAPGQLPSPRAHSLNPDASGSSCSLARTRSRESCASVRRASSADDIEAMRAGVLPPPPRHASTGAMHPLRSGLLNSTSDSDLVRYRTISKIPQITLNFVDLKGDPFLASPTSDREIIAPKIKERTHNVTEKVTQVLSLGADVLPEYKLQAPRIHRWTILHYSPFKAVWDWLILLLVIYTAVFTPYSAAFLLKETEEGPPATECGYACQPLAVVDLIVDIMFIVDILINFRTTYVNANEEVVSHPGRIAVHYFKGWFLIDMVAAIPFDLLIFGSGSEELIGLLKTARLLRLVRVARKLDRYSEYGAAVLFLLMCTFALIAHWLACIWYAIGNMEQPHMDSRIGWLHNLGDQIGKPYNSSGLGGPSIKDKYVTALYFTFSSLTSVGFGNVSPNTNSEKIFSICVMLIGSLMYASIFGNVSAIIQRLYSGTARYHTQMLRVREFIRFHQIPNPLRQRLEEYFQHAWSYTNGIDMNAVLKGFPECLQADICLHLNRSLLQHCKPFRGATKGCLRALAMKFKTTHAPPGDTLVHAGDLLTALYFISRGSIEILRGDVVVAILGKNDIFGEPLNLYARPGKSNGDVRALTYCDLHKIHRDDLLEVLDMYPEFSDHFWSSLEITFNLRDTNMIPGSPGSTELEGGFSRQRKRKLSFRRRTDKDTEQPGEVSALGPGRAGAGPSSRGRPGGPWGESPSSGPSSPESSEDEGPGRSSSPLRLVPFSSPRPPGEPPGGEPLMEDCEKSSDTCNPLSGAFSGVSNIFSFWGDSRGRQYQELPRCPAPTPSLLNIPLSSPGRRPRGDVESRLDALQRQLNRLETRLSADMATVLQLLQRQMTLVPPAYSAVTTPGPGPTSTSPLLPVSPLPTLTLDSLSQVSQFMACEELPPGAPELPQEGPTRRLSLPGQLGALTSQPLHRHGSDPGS

SMILES | hERG current change (%, negative = inhibition) at 1uM
O=C(NC1CC1)C1CC(=O)N(C2CCCCC2)C1 (stereo not drawn) | 11.4%
Cc1ccc(N(CC(=O)NCc2ccc(F)cc2)C(=O)CCC(=O)Nc2ccccn2)cc1C | 9.04%
COc1cccc(-c2cc(C(=O)Nc3ccc(OC)c(OC)c3)no2)c1 | 4.92%
O=C(Cc1ccc(Cl)cc1)c1c[nH]c(C(=O)NCc2cccnc2)c1 | -2.65%
CN(C)S(=O)(=O)c1ccc(-c2csnn2)s1 | 2.18%
CCCc1nc(SCC(=O)N2CCCC2)c2ccccc2n1 | -8.6%
O=C(NC(=S)NCc1cccnc1)c1ccccc1[N+](=O)[O-] | 25.5%
O=C(c1ccco1)N1CCC(c2nc3c(nnn3Cc3ccc(F)cc3)c(=O)[nH]2)CC1 | 6.38%
O=C(CC(=O)c1ccccc1)Nc1ccccc1C(F)(F)F | 13.8%
COc1ccc(/C=c2\s/c(=C(/C#N)C(=O)NCc3ccco3)n(-c3ccccc3)c2=O)cc1 | 8.58%
CCOC(=O)Nc1ccc2c(c1)N(C(=O)CCCl)c1ccccc1[S@]2=O | 16.1%
CC1Cc2ccccc2N1CC(=O)c1c(N)n(Cc2ccccc2)c(=O)n(C)c1=O (stereo not drawn) | -11.7%
COc1ccc(N2C(=O)CC(N3CCC(O)(c4cccc(C(F)(F)F)c4)CC3)C2=O)cc1 (stereo not drawn) | 3.91%
CCN(CC)CCNc1nc(SC)nc2sc3c(c12)CCN(C)C3 | 13.2%
Cc1cc(C(=O)Nc2ccccc2N2CCCCC2)no1 | 14.4%
COc1ccc(C(=O)Nc2cc(C(F)(F)F)ccc2Cl)cc1OC | 0.0432%
O=C(OCc1cc([N+](=O)[O-])cc2c1OCOC2)c1ccccn1 | 19.5%
O=C(Nc1ccccc1)Nc1csc2ccccc12 | 7.36%
CCN1C(=O)/C(=C\c2cccc(OC(=O)c3ccco3)c2)SC1=S | 12.7%
Cc1nc(CNS(=O)(=O)c2cc(C)c(C)cc2C)cs1 | -4.05%
COc1ccc(Cl)cc1NC(=O)CN(C)CC(=O)Nc1ccccc1C(F)(F)F | 5.76%
O=C(C1CCN(S(=O)(=O)c2cccnc2)CC1)N1CCCCC1 | 8.63%
COC(=O)c1c(NC(NC(=O)C(C)C)C(Cl)(Cl)Cl)sc2c1CCC2 (stereo not drawn) | 6.7%

SMILES | hERG current change (%, negative = inhibition) at 1uM
COc1ccc(NC(=O)c2ccco2)cc1NC(=O)c1ccccc1[N+](=O)[O-] | 8.28%
CC1=NN(C(C)C)C(=O)C1 | 0.0595%
CSc1ccc(S(=O)(=O)Nc2cccc(F)c2)cc1 | 13.3%
CC(C)COC(=O)Cc1c(O)c2ccccc2[nH]c1=O | 14.3%
O=C(CC1C(=O)NCCN1Cc1ccc(-c2ccccc2)cc1)NC1CCC1 (stereo not drawn) | 10.4%
Cc1ncc(CSCC(=O)Nc2cc(C(F)(F)F)ccc2Cl)c(CO)c1O | 10.1%
O=C1CC(NS(=O)(=O)c2ccc3ccccc3c2)CN1c1ccccc1 (stereo not drawn) | 8.86%
O=C(CSc1nc(=O)n(CCCN2CCOCC2)c2c1CCC2)Nc1ccc(F)cc1 | -2.68%
COc1ccc(C2=NN(C(C)=O)C(c3ccccc3)C2)cc1 (stereo not drawn) | 10.1%
O=C(OCC(=O)N(CCc1ccccc1)Cc1ccccc1)c1cccc(O)c1 | 61.1%
Cc1cc(=O)[nH]c(NN=C2CCC(C(C)(C)C)CC2)n1 (stereo not drawn) | 13.5%
CCOc1cccc2sc(N3CCN(C(=O)c4ccc5ncsc5c4)CC3)nc12 | 10.9%
COc1ccc(-c2cc(C(=O)NCc3ccco3)c3ccccc3n2)cc1 | 15.6%
Cc1cc(C)c(C(=O)COC(=O)c2cc([N+](=O)[O-])ccc2N2CCOCC2)cc1C | 12.2%
Cn1c(SCc2ccc(Cl)cc2)nnc1-c1ccc2nonc2c1 | 10.6%
CN(C)C(=S)Nc1cccc(F)c1 | 8.99%
COc1ccc(NC(=O)c2c(C)noc2C(C)C)cc1S(=O)(=O)N1CCCCC1 | 0.541%
O=C(CSc1nc(-c2ccccc2)cs1)NCc1ccco1 | -1.15%
Cc1noc(C)c1S(=O)(=O)N1CCC(C(=O)N2CCN(C3CCCC3)CC2)CC1 | 12%
CC(C)C(NC(=O)C1CCCCC1)C(=O)Nc1ccc2c(c1)OCCO2 (stereo not drawn) | 0.124%
CC1CN(C(=O)c2ccc(S(=O)(=O)Nc3cccc(C(F)(F)F)c3)cc2)CC(C)O1 (stereo not drawn) | 3.54%
COc1ccc2nc(S(=O)Cc3ncc(C)c(OC)c3C)[nH]c2c1 (stereo not drawn) | 18.1%
COC(C(=O)Nc1ccnn1C1CCN(Cc2ccc(CO)o2)CC1)c1ccccc1 (stereo not drawn) | 9.7%

SMILES | hERG current change (%, negative = inhibition) at 1uM
CCn1c(O)c2ccc(C(=O)N=NC(=O)c3ccccc3)cc2c1O | 8.57%
CCC(C)n1cnc2c(c1=O)c1nc3ccccc3nc1n2Cc1ccccc1OC (stereo not drawn) | 14.7%
CCNc1nc(Cl)nc(NNC(=O)C(C)Oc2ccccc2)n1 (stereo not drawn) | 11.6%
COc1ccc(CCC2(C)NC(=O)N(C(C)C(=O)Nc3ccccc3F)C2=O)cc1 (stereo not drawn) | -19.4%
Cc1cnc(C(=O)OCC(=O)N2CCc3ccccc3C2)cn1 | 11.7%
Cc1ccc(C)c(NC(=O)C[n+]2ccccc2)c1.[Cl-] | 10.9%
N#CC1=C(N)Oc2cc(N)ccc2C1c1cccc(Br)c1 (stereo not drawn) | 3.1%
O=C(c1c(Cl)cccc1Cl)N1CCN(c2ccccn2)CC1 | -8.02%
O=C1CC(C(=O)Nc2ccc(F)cc2)n2cnnc2N1 (stereo not drawn) | -0.0673%
CC(=O)c1cnn(-c2c(Cl)cc(Cl)cc2Cl)c1C | 7.75%
CC1CCCCC1NC(=O)CCCn1c(=S)[nH]c2ccsc2c1=O (stereo not drawn) | 22.6%
COc1ccccc1CNC(=O)CCNS(=O)(=O)c1cc(Br)cnc1N | -2.62%
CCN(CC)C(=O)CSc1nc2c(sc(=S)n2Cc2ccco2)c(=O)n1-c1ccccc1 | 5.26%
Cc1cc(C)c2c(CC(=O)NC(C)C)coc2c1 | 12%
CC(=O)Nc1nc(NCc2ccccc2Cl)n(-c2ccccc2)n1 | 13.7%
COC(=O)c1sc2nc(C)nc(SCC(=O)C(C)(C)C)c2c1C | 16%
CCOc1ccc(-c2cc(C(=O)NN=C3CCN(C)CC3)[nH]n2)cc1 | 7.5%
Cc1ccc(C(=O)NC(=S)NNC(=O)COc2ccc([N+](=O)[O-])cc2)cc1 | 13.9%
O=C(NCCc1ccncc1)Nc1ccccc1Cl | 5.83%
Nc1ccn(CC(=O)N[C@H](CO)Cc2c[nH]c3ccccc23)c(=O)n1 | 23.4%
Cc1nn(C)cc1C(C)NC(=O)c1cc(COc2cccc3cnccc23)on1 (stereo not drawn) | 17.1%
Brc1ccc(-c2nnc(Cc3ccccc3)o2)cc1 | 4.56%
COc1cccc(NC(=O)CSc2ccccn2)c1 | 0.305%

SMILES | hERG current change (%, negative = inhibition) at 1uM
COc1ccc(Nc2sc(C(=O)c3ccc(Cl)cc3)c(N)c2C(=O)Nc2ccccc2OC)cc1 | -8.63%
Cc1cc(NC(=O)C(C)SCC(=O)Nc2nc3c(F)cc(F)cc3s2)no1 (stereo not drawn) | 7.71%
COc1ccc2nc(NC(=O)c3ccco3)sc2c1 | 3.68%
O=C(CS(=O)CC(=O)Nc1cccc2c1CCCC2)Nc1ccc(F)cc1 (stereo not drawn) | 19.8%
Cc1nc(NCCCO)c(C#N)c2c1COC(C)(C)C2 | -7.86%
Cc1ncoc1C(=O)N1CCCC(C(=O)c2cccc3ccccc23)C1 (stereo not drawn) | 9.25%
CC(N=Cc1cccc(O)c1O)c1ccccc1 (stereo not drawn) | 4.71%
S=c1[nH]nc(-c2ccco2)n1/N=C/c1c(Cl)cccc1Cl | 1.31%
CCOc1ccc(N(Cc2ccc(OC)cc2)C(=O)c2ccco2)cc1 | 12.2%
Cc1ccc(C(C(=O)NC2CCCCC2)N2CCOCC2)cc1 (stereo not drawn) | 8.13%
O=C(CNC(=O)/C(=C\c1ccc(F)cc1)NC(=O)c1ccccc1)OCc1ccccc1 | -69%
COc1ccc(N2CCN(C(=O)c3oc4ccccc4c3NC(=O)Cc3ccc(OC)c(OC)c3)CC2)cc1 | 8.68%
COc1cccc(NC(=O)CN(C)C(=O)c2ccccc2-c2nc3ccccc3s2)c1 | -1.78%
CN(CC(=O)Nc1cccc2c1CCCC2)S(=O)(=O)c1ccc(Br)cc1 | 3.76%
Cc1c(CCO)sc[n+]1CC(=O)OCCC12CC3CC(CC(C3)C1)C2.[Cl-] | 5.19%
O=c1c2ccc(Cl)cc2[nH]c(=S)n1-c1cccnc1 | 16.9%
CNc1ncnc2c1ncn2[C@@H]1O[C@H](CO)[C@@H](O)[C@H]1O | 14%
CCc1ccc(CN(C(=O)c2ccco2)C2CCS(=O)(=O)C2)cc1 (stereo not drawn) | 4.18%
Cc1cc(C(=O)O)c(S(C)(=O)=O)s1 | 10%
COc1ccc(-n2ccnc(SCC(=O)NCc3ccc(C)cc3)c2=O)cc1Cl | 3.45%
CN1c2ccccc2Sc2cc(N)ccc21 | 10.1%
